Data reported in the supplement of paper PMC10037445.
In all, about 2,900 compounds were measured (“IRF Lucia reporter activity, fold change vs agonist alone”: median about 0.9, highest 2% from about 2.8 on). This is one part of the list.

Assays:
RAW-Dual [1] = experiment: IRF Lucia reporter activity, fold change vs agonist alone; higher = enhanced IRF activity; conditions: agonist: MPLA (TLR4) […]
In short: (§1)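 RAW-Dual macrophages were seeded in DMEM at 50,000 cells/well in 384-well plates, given 50 nL of library stock by pin tool, and given a PRR agonist 1 h later. Plates were held at 37 °C, 5% CO2 for 20 hours, after which supernatant was read for IRF by QuantiLuc luminescence and for NF-κB by QuantiBlue absorbance at 620 nm. Reporter activity is expressed as fold change over wells that received agonist alone. A well was called cytotoxic when IncuCyte confluency fell below 70% of agonist controls in both mask sets.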

RAW-Dual [2] = experiment: IRF Lucia reporter activity, fold change vs agonist alone; cytotoxicity flag (confluency mask): not cytotoxic; higher = enhanced IRF activity
In short: as §1

RAW-Dual [3] = experiment: IRF Lucia reporter activity, fold change vs agonist alone; cytotoxicity flag (confluency mask): cytotoxic (confluency <70% of control); higher = enhanced IRF activity
In short: as §1

[4] = library stock concentration (final ~1000-fold dilution): 10 mM, cytotoxicity flag (confluency mask): not cytotoxic
[5] = agonist: 3'3'-cGAMP (STING) 10 ug/mL

Compound: CCOc1cc(CC(=O)NC(CC(C)C)c2ccccc2N2CCCCC2)ccc1C(=O)O (stereo not given)
- IRF Lucia reporter activity (RAW-Dual [1]; [4]): 1.34

Compound: NS(=O)(=O)c1cc(Cl)c(Cl)c(S(N)(=O)=O)c1 (library stock concentration (final ~1000-fold dilution): 10 mM)
- IRF Lucia reporter activity (RAW-Dual [2]; [5]): 0.98
- IRF Lucia reporter activity (RAW-Dual [2]; agonist: LPS (TLR4) 0.1 ug/mL): 1.06

Compound: NS(=O)(=O)c1cc(Cl)c(Cl)c(S(N)(=O)=O)c1
- IRF Lucia reporter activity (RAW-Dual [1]; [4]): 0.993

Compound: CS(=O)(=O)c1ccc(-c2cnc(N)c(C(=O)Nc3ccccc3)n2)cc1 (library stock concentration (final ~1000-fold dilution): 10 mM)
- IRF Lucia reporter activity (RAW-Dual [2]; [5]): 0.0584
- IRF Lucia reporter activity (RAW-Dual [2]; agonist: LPS (TLR4) 0.1 ug/mL): 0.703

Compound: CNC(=O)c1ccc(-c2cnc3cnc(-c4ccccc4)cn23)cc1 (library stock concentration (final ~1000-fold dilution): 10 mM)
- IRF Lucia reporter activity (RAW-Dual [2]; [5]): 0.101
- IRF Lucia reporter activity (RAW-Dual [2]; agonist: LPS (TLR4) 0.1 ug/mL): 0.598

Compound: CC12CCC(=O)C=C1C=CC1C2CCC2(C)C1CCC21CCC(=O)O1 (stereo not given) (library stock concentration (final ~1000-fold dilution): 10 mM)
- IRF Lucia reporter activity (RAW-Dual [2]; [5]): 1.12
- IRF Lucia reporter activity (RAW-Dual [2]; agonist: LPS (TLR4) 0.1 ug/mL): 1.22

Compound: CC12CCC(=O)C=C1C=CC1C2CCC2(C)C1CCC21CCC(=O)O1 (stereo not given)
- IRF Lucia reporter activity (RAW-Dual [1]; [4]): 1.09

Compound: COc1ccc(CCNCc2ccc(OCc3ccc(Cl)nc3)c(OC)c2)cc1OC.Cl (library stock concentration (final ~1000-fold dilution): 10 mM)
- IRF Lucia reporter activity (RAW-Dual [2]; [5]): 0.609
- IRF Lucia reporter activity (RAW-Dual [2]; agonist: LPS (TLR4) 0.1 ug/mL): 1.07

Compound: CC(C)N(CCCNC(=O)Nc1ccc(C(C)(C)C)cc1)CC1OC(n2ccc3c(N)ncnc32)C(O)C1O (stereo not given) (library stock concentration (final ~1000-fold dilution): 10 mM)
- IRF Lucia reporter activity (RAW-Dual [2]; [5]): 0.89
- IRF Lucia reporter activity (RAW-Dual [2]; agonist: LPS (TLR4) 0.1 ug/mL): 1.1

Compound: CC(C)N(CCCNC(=O)Nc1ccc(C(C)(C)C)cc1)CC1OC(n2ccc3c(N)ncnc32)C(O)C1O (stereo not given)
- IRF Lucia reporter activity (RAW-Dual [1]; [4]): 1.01

Compound: O=C(O)CCCCC(CCSCc1ccccc1)SCc1ccccc1 (stereo not given) (library stock concentration (final ~1000-fold dilution): 10 mM)
- IRF Lucia reporter activity (RAW-Dual [2]; [5]): 1.22
- IRF Lucia reporter activity (RAW-Dual [2]; agonist: LPS (TLR4) 0.1 ug/mL): 1.12

Compound: O=C(O)CCCCC(CCSCc1ccccc1)SCc1ccccc1 (stereo not given)
- IRF Lucia reporter activity (RAW-Dual [1]; [4]): 1.13

Compound: CN1c2ccccc2C(=O)Nc2cnc(Nc3ccc(N4CCC(O)CC4)cc3)nc21 (library stock concentration (final ~1000-fold dilution): 10 mM)
- IRF Lucia reporter activity (RAW-Dual [2]; [5]): 0.137
- IRF Lucia reporter activity (RAW-Dual [2]; agonist: LPS (TLR4) 0.1 ug/mL): 0.438

Compound: C=C(Cc1ccccc1Cl)C(=O)OCC (library stock concentration (final ~1000-fold dilution): 10 mM)
- IRF Lucia reporter activity (RAW-Dual [3]; [5]): 0.845
- IRF Lucia reporter activity (RAW-Dual [3]; agonist: LPS (TLR4) 0.1 ug/mL): 0.808

Compound: CC12CC(O)C3CC1(OC1OC(CO)C(O)C(O)C1O)C3(COC(=O)c1ccccc1)C(=O)O2 (stereo not given) (library stock concentration (final ~1000-fold dilution): 10 mM)
- IRF Lucia reporter activity (RAW-Dual [2]; [5]): 0.978
- IRF Lucia reporter activity (RAW-Dual [2]; agonist: LPS (TLR4) 0.1 ug/mL): 1.12

Compound: CC12CCC3C(CCC4C(C)(C(=O)O)CCCC34C)(CC1=O)C2 (stereo not given) (library stock concentration (final ~1000-fold dilution): 10 mM)
- IRF Lucia reporter activity (RAW-Dual [2]; [5]): 1.08
- IRF Lucia reporter activity (RAW-Dual [2]; agonist: LPS (TLR4) 0.1 ug/mL): 1.5

Compound: CC(C)(C)c1nc(-c2cccc(NS(=O)(=O)c3c(F)cccc3F)c2F)c(-c2ccnc(N)n2)s1 (library stock concentration (final ~1000-fold dilution): 10 mM)
- IRF Lucia reporter activity (RAW-Dual [3]; [5]): 0.65
- IRF Lucia reporter activity (RAW-Dual [3]; agonist: LPS (TLR4) 0.1 ug/mL): 0.5

Compound: CC(C)(C)c1nc(-c2cccc(NS(=O)(=O)c3c(F)cccc3F)c2F)c(-c2ccnc(N)n2)s1
- IRF Lucia reporter activity (RAW-Dual [1]; library stock concentration (final ~1000-fold dilution): 10 mM, cytotoxicity flag (confluency mask): cytotoxic (confluency <70% of control)): 0.404

Compound: Cc1c(C(=O)Nc2ccc(N3CCC(N4CCOCC4)CC3)c(C#N)c2)cnn1-c1ccc(Cl)cc1
- IRF Lucia reporter activity (RAW-Dual [1]; [4]): 0.726

Compound: Cc1c(C(=O)Nc2ccc(N3CCC(N4CCOCC4)CC3)c(C#N)c2)cnn1-c1ccc(Cl)cc1 (library stock concentration (final ~1000-fold dilution): 10 mM)
- IRF Lucia reporter activity (RAW-Dual [2]; [5]): 0.0482
- IRF Lucia reporter activity (RAW-Dual [2]; agonist: LPS (TLR4) 0.1 ug/mL): 0.734

Compound: Cc1cc(Nc2cc(N)ncn2)c(=O)n2c1C(=O)NC21CCCCC1 (library stock concentration (final ~1000-fold dilution): 10 mM)
- IRF Lucia reporter activity (RAW-Dual [2]; [5]): 0.431
- IRF Lucia reporter activity (RAW-Dual [2]; agonist: LPS (TLR4) 0.1 ug/mL): 0.482

Compound: Cc1noc(C)c1-c1cnc2c(-c3ccc(C(=O)O)cc3)cn(C(C)c3ccccn3)c2c1 (stereo not given) (library stock concentration (final ~1000-fold dilution): 10 mM)
- IRF Lucia reporter activity (RAW-Dual [2]; [5]): 0.288
- IRF Lucia reporter activity (RAW-Dual [2]; agonist: LPS (TLR4) 0.1 ug/mL): 0.123

Compound: Nc1c(CC(=O)O)cccc1C(=O)c1ccc(Br)cc1
- IRF Lucia reporter activity (RAW-Dual [1]; [4]): 1.11

Compound: Nc1c(CC(=O)O)cccc1C(=O)c1ccc(Br)cc1 (library stock concentration (final ~1000-fold dilution): 10 mM)
- IRF Lucia reporter activity (RAW-Dual [2]; [5]): 1.1
- IRF Lucia reporter activity (RAW-Dual [2]; agonist: LPS (TLR4) 0.1 ug/mL): 0.906

Compound: Cn1nccc1Nc1nccc(-c2cc3c(s2)C(C)(C)N(CCN2CCOCC2)C3=O)n1 (library stock concentration (final ~1000-fold dilution): 10 mM)
- IRF Lucia reporter activity (RAW-Dual [2]; [5]): 0.34
- IRF Lucia reporter activity (RAW-Dual [2]; agonist: LPS (TLR4) 0.1 ug/mL): 1.61

Compound: Cl.N=C(N)NC(=O)c1nc(Cl)c(N)nc1N.O.O (library stock concentration (final ~1000-fold dilution): 10 mM water)
- IRF Lucia reporter activity (RAW-Dual [2]; [5]): 1.46
- IRF Lucia reporter activity (RAW-Dual [2]; agonist: LPS (TLR4) 0.1 ug/mL): 0.86

Compound: Cl.N=C(N)NC(=O)c1nc(Cl)c(N)nc1N.O.O
- IRF Lucia reporter activity (RAW-Dual [1]; library stock concentration (final ~1000-fold dilution): 10 mM water, cytotoxicity flag (confluency mask): not cytotoxic): 1.41
